Source: the supplement of paper PMC8728848
The list shows a part of the results.

How the values were obtained:
Assay in all cases: glycan array binding signal (z-score within array); higher = stronger binding
Settings in all cases: glycan notation: IUPAC condensed, linker removed
Glc(a1-2)Glc = target: Glc(a1-2)Glc
Outline: (§1)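 Glycan array data were curated from 3228 arrays in the Consortium for Functional Glycomics database and kept only where the protein sequence was available. Glycan names were converted to IUPAC-condensed notation, and columns mapping to the same glycan were averaged. The binding signal is a within-array Z-score, averaged across arrays of the same protein sequence at different concentrations or buffers and across linkers. Negative Z-scores can be read as non-binding.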

Glc(a1-2)Glc(a1-2)Glc = target: Glc(a1-2)Glc(a1-2)Glc
Outline: as §1

[1] = target: Glc(a1-2)Glc(a1-2)Glc(a1-2)Glc
Outline: as §1

[2] = target: Glc(a1-2)Glc(a1-2)Glc(a1-2)Glc(a1-2)Glc
Outline: as §1

[3] = target: Glc(a1-2)Glc(a1-2)Glc(a1-2)Glc(a1-2)Glc(a1-2)Glc
Outline: as §1

[4] = target: Glc(a1-2)Glc(a1-2)Glc(a1-2)Glc(a1-2)Glc(a1-2)Glc(a1-2)Glc
Outline: as §1

[5] = target: Glc(a1-2)Glc(a1-2)Glc(a1-2)Glc(a1-2)Glc(a1-2)Glc(a1-2)Glc(a1-2)Glc
Outline: as §1

[6] = target: Glc(a1-2)Glc(a1-2)Glc(a1-2)Glc(a1-2)Glc(a1-2)Glc(a1-2)Glc(a1-2)Glc(a1-2)Glc
Outline: as §1

Glc(a1-3)Glc = target: Glc(a1-3)Glc
Outline: as §1

Glc(a1-3)Glc(a1-3)Glc = target: Glc(a1-3)Glc(a1-3)Glc
Outline: as §1

[7] = target: Glc(a1-3)Glc(a1-3)Glc(a1-3)Glc
Outline: as §1

[8] = target: Glc(a1-3)Glc(a1-3)Glc(a1-3)Glc(a1-3)Glc
Outline: as §1

[9] = target: Glc(a1-3)Glc(a1-3)Glc(a1-3)Glc(a1-3)Glc(a1-3)Glc
Outline: as §1

[10] = target: Glc(a1-3)Glc(a1-3)Glc(a1-3)Glc(a1-3)Glc(a1-3)Glc(a1-3)Glc
Outline: as §1

[11] = target: Glc(a1-3)Glc(a1-3)Glc(a1-3)Glc(a1-3)Glc(a1-3)Glc(a1-3)Glc(a1-3)Glc
Outline: as §1

[12] = target: Glc(a1-3)Glc(a1-3)Glc(a1-3)Glc(a1-3)Glc(a1-3)Glc(a1-3)Glc(a1-3)Glc(a1-3)Glc
Outline: as §1

[13] = target: Glc(a1-3)Glc(a1-3)Glc(a1-3)Glc(a1-3)Glc(a1-3)Glc(a1-3)Glc(a1-3)Glc(a1-3)Glc(a1-3)Glc
Outline: as §1

[14] = target: Glc(a1-3)Glc(a1-3)Glc(a1-3)Glc(a1-3)Glc(a1-3)Glc(a1-3)Glc(a1-3)Glc(a1-3)Glc(a1-3)Glc(a1-3)Glc
Outline: as §1

[15] = target: Glc(a1-3)Glc(a1-3)Glc(a1-3)Glc(a1-3)Glc(a1-3)Glc(a1-3)Glc(a1-3)Glc(a1-3)Glc(a1-3)Glc(a1-3)Glc(a1-3)Glc
Outline: as §1

[16] = target: Glc(a1-3)Glc(a1-3)Glc(a1-3)Glc(a1-3)Glc(a1-3)Glc(a1-3)Glc(a1-3)Glc(a1-3)Glc(a1-3)Glc(a1-3)Glc(a1-3)Glc(a1-3)Glc
Outline: as §1

Glc(a1-4)Glc = target: Glc(a1-4)Glc
Outline: as §1

Glc(a1-4)Glc(a1-4)Glc = target: Glc(a1-4)Glc(a1-4)Glc
Outline: as §1

[17] = target: Glc(a1-4)Glc(a1-4)Glc(a1-4)Glc
Outline: as §1

[18] = target: Glc(a1-4)Glc(a1-4)Glc(a1-4)Glc(a1-4)Glc
Outline: as §1

[19] = target: Glc(a1-4)Glc(a1-4)Glc(a1-4)Glc(a1-4)Glc(a1-4)Glc
Outline: as §1

[20] = target: Glc(a1-4)Glc(a1-4)Glc(a1-4)Glc(a1-4)Glc(a1-4)Glc(a1-4)Glc
Outline: as §1

[21] = target: Glc(a1-4)Glc(a1-4)Glc(a1-4)Glc(a1-4)Glc(a1-4)Glc(a1-4)Glc(a1-4)Glc
Outline: as §1

[22] = target: Glc(a1-4)Glc(a1-4)Glc(a1-4)Glc(a1-4)Glc(a1-4)Glc(a1-4)Glc(a1-4)Glc(a1-4)Glc
Outline: as §1

[23] = target: Glc(a1-4)Glc(a1-4)Glc(a1-4)Glc(a1-4)Glc(a1-4)Glc(a1-4)Glc(a1-4)Glc(a1-4)Glc(a1-4)Glc
Outline: as §1

[24] = target: Glc(a1-4)Glc(a1-4)Glc(a1-4)Glc(a1-4)Glc(a1-4)Glc(a1-4)Glc(a1-4)Glc(a1-4)Glc(a1-4)Glc(a1-4)Glc
Outline: as §1

[25] = target: Glc(a1-4)Glc(a1-4)Glc(a1-4)Glc(a1-4)Glc(a1-4)Glc(a1-4)Glc(a1-4)Glc(a1-4)Glc(a1-4)Glc(a1-4)Glc(a1-4)Glc
Outline: as §1

[26] = target: Glc(a1-4)Glc(a1-4)Glc(a1-4)Glc(a1-4)Glc(a1-4)Glc(a1-4)Glc(a1-4)Glc(a1-4)Glc(a1-4)Glc(a1-4)Glc(a1-4)Glc(a1-4)Glc
Outline: as §1

Glc(a1-4)Glc(a1-6)Glc = target: Glc(a1-4)Glc(a1-6)Glc
Outline: as §1

Glc(a1-6)Glc = target: Glc(a1-6)Glc
Outline: as §1

Glc(a1-6)Glc(a1-4)Glc = target: Glc(a1-6)Glc(a1-4)Glc
Outline: as §1

[27] = target: Glc(a1-6)Glc(a1-4)Glc(a1-4)Glc
Outline: as §1

[28] = target: Glc(a1-6)Glc(a1-4)Glc(a1-4)Glc(a1-6)Glc(a1-4)Glc(a1-4)Glc
Outline: as §1

Glc(a1-6)Glc(a1-6)Glc = target: Glc(a1-6)Glc(a1-6)Glc
Outline: as §1

[29] = target: Glc(a1-6)Glc(a1-6)Glc(a1-6)Glc
Outline: as §1

[30] = target: Glc(a1-6)Glc(a1-6)Glc(a1-6)Glc(a1-6)Glc
Outline: as §1

[31] = target: Glc(a1-6)Glc(a1-6)Glc(a1-6)Glc(a1-6)Glc(a1-6)Glc
Outline: as §1

[32] = target: Glc(a1-6)Glc(a1-6)Glc(a1-6)Glc(a1-6)Glc(a1-6)Glc(a1-6)Glc
Outline: as §1

[33] = target: Glc(a1-6)Glc(a1-6)Glc(a1-6)Glc(a1-6)Glc(a1-6)Glc(a1-6)Glc(a1-6)Glc
Outline: as §1

[34] = target: Glc(a1-6)Glc(a1-6)Glc(a1-6)Glc(a1-6)Glc(a1-6)Glc(a1-6)Glc(a1-6)Glc(a1-6)Glc
Outline: as §1

[35] = target: Glc(a1-6)Glc(a1-6)Glc(a1-6)Glc(a1-6)Glc(a1-6)Glc(a1-6)Glc(a1-6)Glc(a1-6)Glc(a1-6)Glc
Outline: as §1

[36] = target: Glc(a1-6)Glc(a1-6)Glc(a1-6)Glc(a1-6)Glc(a1-6)Glc(a1-6)Glc(a1-6)Glc(a1-6)Glc(a1-6)Glc(a1-6)Glc
Outline: as §1

[37] = target: Glc(a1-6)Glc(a1-6)Glc(a1-6)Glc(a1-6)Glc(a1-6)Glc(a1-6)Glc(a1-6)Glc(a1-6)Glc(a1-6)Glc(a1-6)Glc(a1-6)Glc
Outline: as §1

[38] = target: Glc(a1-6)Glc(a1-6)Glc(a1-6)Glc(a1-6)Glc(a1-6)Glc(a1-6)Glc(a1-6)Glc(a1-6)Glc(a1-6)Glc(a1-6)Glc(a1-6)Glc(a1-6)Glc
Outline: as §1

Glc(b1-2)Glc = target: Glc(b1-2)Glc
Outline: as §1

Glc(b1-2)Glc(b1-2)Glc = target: Glc(b1-2)Glc(b1-2)Glc
Outline: as §1

[39] = target: Glc(b1-2)Glc(b1-2)Glc(b1-2)Glc
Outline: as §1

[40] = target: Glc(b1-2)Glc(b1-2)Glc(b1-2)Glc(b1-2)Glc
Outline: as §1

[41] = target: Glc(b1-2)Glc(b1-2)Glc(b1-2)Glc(b1-2)Glc(b1-2)Glc
Outline: as §1

[42] = target: Glc(b1-2)Glc(b1-2)Glc(b1-2)Glc(b1-2)Glc(b1-2)Glc(b1-2)Glc
Outline: as §1

[43] = target: Glc(b1-2)Glc(b1-2)Glc(b1-2)Glc(b1-2)Glc(b1-2)Glc(b1-2)Glc(b1-2)Glc
Outline: as §1

[44] = target: Glc(b1-2)Glc(b1-2)Glc(b1-2)Glc(b1-2)Glc(b1-2)Glc(b1-2)Glc(b1-2)Glc(b1-2)Glc
Outline: as §1

[45] = target: Glc(b1-2)Glc(b1-2)Glc(b1-2)Glc(b1-2)Glc(b1-2)Glc(b1-2)Glc(b1-2)Glc(b1-2)Glc(b1-2)Glc
Outline: as §1

[46] = target: Glc(b1-2)Glc(b1-2)Glc(b1-2)Glc(b1-2)Glc(b1-2)Glc(b1-2)Glc(b1-2)Glc(b1-2)Glc(b1-2)Glc(b1-2)Glc
Outline: as §1

[47] = target: Glc(b1-2)Glc(b1-2)Glc(b1-2)Glc(b1-2)Glc(b1-2)Glc(b1-2)Glc(b1-2)Glc(b1-2)Glc(b1-2)Glc(b1-2)Glc(b1-2)Glc
Outline: as §1

[48] = target: Glc(b1-2)Glc(b1-2)Glc(b1-2)Glc(b1-2)Glc(b1-2)Glc(b1-2)Glc(b1-2)Glc(b1-2)Glc(b1-2)Glc(b1-2)Glc(b1-2)Glc(b1-2)Glc
Outline: as §1

B1: Lam16A (Thermotoga maritima), Q9WXN1 (protein)
chain: EQINNGTFDEPIVNDQANNPDEWFIWQAGDYGISGARVSDYGVRDGYAYITIADPGTDTWHIQFNQWIGLYRGKTYTISFKAKADTPRPINVKILQNHDPWTNYFAQTVNLTADWQTFTFTYTHPDDADEVVQISFELGEGTATTIYFDDVTVSPQ
Glc(a1-2)Glc
  glycan array binding signal (z-score): -0.373
Glc(a1-2)Glc(a1-2)Glc
  glycan array binding signal (z-score): -0.373
[1]
  glycan array binding signal (z-score): -0.373
[2]
  glycan array binding signal (z-score): -0.373
[3]
  glycan array binding signal (z-score): -0.373
[4]
  glycan array binding signal (z-score): -0.373
[5]
  glycan array binding signal (z-score): -0.373
[6]
  glycan array binding signal (z-score): -0.373
Glc(a1-3)Glc
  glycan array binding signal (z-score): -0.373
Glc(a1-3)Glc(a1-3)Glc
  glycan array binding signal (z-score): -0.373
[7]
  glycan array binding signal (z-score): -0.373
[8]
  glycan array binding signal (z-score): -0.371
[9]
  glycan array binding signal (z-score): -0.373
[10]
  glycan array binding signal (z-score): -0.373
[11]
  glycan array binding signal (z-score): -0.373
[12]
  glycan array binding signal (z-score): -0.373
[13]
  glycan array binding signal (z-score): -0.373
[14]
  glycan array binding signal (z-score): -0.373
[15]
  glycan array binding signal (z-score): -0.37
[16]
  glycan array binding signal (z-score): -0.373
Glc(a1-4)Glc
  glycan array binding signal (z-score): -0.373
Glc(a1-4)Glc(a1-4)Glc
  glycan array binding signal (z-score): -0.373
[17]
  glycan array binding signal (z-score): -0.373
[18]
  glycan array binding signal (z-score): -0.373
[19]
  glycan array binding signal (z-score): -0.373
[20]
  glycan array binding signal (z-score): -0.368
[21]
  glycan array binding signal (z-score): -0.368
[22]
  glycan array binding signal (z-score): -0.373
[23]
  glycan array binding signal (z-score): -0.363
[24]
  glycan array binding signal (z-score): -0.366
[25]
  glycan array binding signal (z-score): -0.364
[26]
  glycan array binding signal (z-score): -0.37
Glc(a1-4)Glc(a1-6)Glc
  glycan array binding signal (z-score): -0.373
Glc(a1-6)Glc
  glycan array binding signal (z-score): -0.373
Glc(a1-6)Glc(a1-4)Glc
  glycan array binding signal (z-score): -0.373
[27]
  glycan array binding signal (z-score): -0.373
[28]
  glycan array binding signal (z-score): -0.373
Glc(a1-6)Glc(a1-6)Glc
  glycan array binding signal (z-score): -0.373
[29]
  glycan array binding signal (z-score): -0.373
[30]
  glycan array binding signal (z-score): -0.373
[31]
  glycan array binding signal (z-score): -0.373
[32]
  glycan array binding signal (z-score): -0.373
[33]
  glycan array binding signal (z-score): -0.373
[34]
  glycan array binding signal (z-score): -0.373
[35]
  glycan array binding signal (z-score): -0.368
[36]
  glycan array binding signal (z-score): -0.255
[37]
  glycan array binding signal (z-score): -0.373
[38]
  glycan array binding signal (z-score): -0.373
Glc(b1-2)Glc
  glycan array binding signal (z-score): -0.373
Glc(b1-2)Glc(b1-2)Glc
  glycan array binding signal (z-score): -0.373
[39]
  glycan array binding signal (z-score): -0.373
[40]
  glycan array binding signal (z-score): -0.373
[41]
  glycan array binding signal (z-score): -0.373
[42]
  glycan array binding signal (z-score): -0.373
[43]
  glycan array binding signal (z-score): -0.373
[44]
  glycan array binding signal (z-score): -0.373
[45]
  glycan array binding signal (z-score): -0.373
[46]
  glycan array binding signal (z-score): -0.373
[47]
  glycan array binding signal (z-score): -0.373
[48]
  glycan array binding signal (z-score): -0.373
